Legend:
[1] = target: T1, Canine IL4_C-His6 (processed) (canine, UniProt O77762 25-131); assay: BLI (Octet), IL4R-ECD_C-HuFc_His6 on anti-human Fc tips, ligand 50 µg/mL first
T1 sequence: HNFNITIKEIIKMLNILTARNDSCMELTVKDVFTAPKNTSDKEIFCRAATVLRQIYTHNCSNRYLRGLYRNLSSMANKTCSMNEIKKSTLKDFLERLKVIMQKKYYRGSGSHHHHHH
Experimental: (§1) The opposite binding assay was also performed. The association between canine IL4_C-His6 (SEQ ID NO: 127; 50 μg/mL) or canine IL13_C-His6 (SEQ ID NO: 157; 50 μg/mL) and canine IL4R-ECD_C-HuFc_His6 captured on anti-human Fc-bound sensor tips was monitored for 600 seconds. The complex-bound tips were washed briefly and then exposed to Clone B antibody (50 μg/mL) or Clone I antibody (50 μg/mL) and monitored for 600 seconds. Following IL4 and IL13 binding to IL4R (FIG. 3C and FIG. 3D, respectively), further association with Clone B or Clone I was observed.

[2] = target: T2, Canine IL13_C-His6 (processed) (canine, UniProt Q9N0W9 19-131); assay: as above
T2 sequence: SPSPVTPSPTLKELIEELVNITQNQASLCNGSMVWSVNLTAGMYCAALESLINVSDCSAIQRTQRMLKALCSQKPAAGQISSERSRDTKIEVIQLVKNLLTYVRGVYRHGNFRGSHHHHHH
Experimental: as §1

B1: Canine IL4R-ECD_C-HuFc_His6 (processed) (Fc fusion)
chain: GSVKVLHEPSCFSDYISTSVCQWKMDHPTNCSAELRLSYQLDFMGSENHTCVPENREDSVCVCSMPIDDAVEADVYQLDLWAGQQLLWSGSFQPSKHVKPRTPGNLTVHPNISHTWLLMWTNPYPTENHLHSELTYMVNVSNDNDPEDFKVYNVTYMGPTLRLAASTLKSGASYSARVRAWAQTYNSTWSDWSPSTTWLNYYEPGSENLYFQ[letters of human IgG1 Fc and a few adjoining residues omitted]
notes: Whole construct (ECD, linker, human Fc, His6) is one entry
Question: Does B1 bind [1]?
Answer: Result: binds

Question: Does B1 bind [2]?
Answer: Result: binds
